Measurements: paper PMC5316855
These are yes or no findings as the source states them, for the method shown. Binding seen in cells or lysates may run through a third protein. Some entries that bind do so weakly or less than the wild type. One block for each substance: values may come before it.

Chains of the proteins cited; added tags and fusions are not shown. Residues count along the entry.
UniProt P11802: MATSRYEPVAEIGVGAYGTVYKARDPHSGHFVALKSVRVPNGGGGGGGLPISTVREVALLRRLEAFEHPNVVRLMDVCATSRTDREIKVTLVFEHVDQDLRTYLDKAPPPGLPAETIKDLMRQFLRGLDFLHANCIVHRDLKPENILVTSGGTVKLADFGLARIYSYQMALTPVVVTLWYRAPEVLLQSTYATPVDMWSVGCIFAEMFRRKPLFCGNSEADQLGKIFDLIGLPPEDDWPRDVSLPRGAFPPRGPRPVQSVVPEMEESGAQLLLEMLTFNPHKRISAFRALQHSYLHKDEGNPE
UniProt P29317, residues 24-976: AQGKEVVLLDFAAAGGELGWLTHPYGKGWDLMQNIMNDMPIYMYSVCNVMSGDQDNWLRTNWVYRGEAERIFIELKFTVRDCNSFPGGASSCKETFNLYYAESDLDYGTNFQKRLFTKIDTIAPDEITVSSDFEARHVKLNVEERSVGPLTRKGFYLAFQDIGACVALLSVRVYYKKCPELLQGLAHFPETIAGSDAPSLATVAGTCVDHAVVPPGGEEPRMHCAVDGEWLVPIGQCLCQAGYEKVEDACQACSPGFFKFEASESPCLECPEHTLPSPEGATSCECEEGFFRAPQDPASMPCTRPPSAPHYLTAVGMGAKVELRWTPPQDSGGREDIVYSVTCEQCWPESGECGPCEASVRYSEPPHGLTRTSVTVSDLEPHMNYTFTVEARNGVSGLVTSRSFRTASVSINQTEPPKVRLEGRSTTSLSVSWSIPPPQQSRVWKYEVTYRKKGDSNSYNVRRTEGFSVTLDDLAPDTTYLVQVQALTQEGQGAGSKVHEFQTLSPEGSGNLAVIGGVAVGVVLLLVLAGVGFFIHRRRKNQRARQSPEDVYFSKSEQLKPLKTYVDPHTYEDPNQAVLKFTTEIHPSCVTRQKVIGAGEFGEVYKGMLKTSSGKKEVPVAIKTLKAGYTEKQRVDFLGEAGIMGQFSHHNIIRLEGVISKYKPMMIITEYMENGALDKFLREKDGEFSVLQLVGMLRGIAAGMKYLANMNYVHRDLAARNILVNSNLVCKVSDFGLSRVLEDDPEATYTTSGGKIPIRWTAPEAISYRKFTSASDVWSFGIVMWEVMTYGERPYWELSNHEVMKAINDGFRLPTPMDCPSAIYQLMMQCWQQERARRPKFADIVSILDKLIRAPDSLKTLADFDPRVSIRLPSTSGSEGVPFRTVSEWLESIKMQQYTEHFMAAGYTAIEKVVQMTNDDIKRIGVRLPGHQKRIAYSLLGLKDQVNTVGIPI
UniProt P01106: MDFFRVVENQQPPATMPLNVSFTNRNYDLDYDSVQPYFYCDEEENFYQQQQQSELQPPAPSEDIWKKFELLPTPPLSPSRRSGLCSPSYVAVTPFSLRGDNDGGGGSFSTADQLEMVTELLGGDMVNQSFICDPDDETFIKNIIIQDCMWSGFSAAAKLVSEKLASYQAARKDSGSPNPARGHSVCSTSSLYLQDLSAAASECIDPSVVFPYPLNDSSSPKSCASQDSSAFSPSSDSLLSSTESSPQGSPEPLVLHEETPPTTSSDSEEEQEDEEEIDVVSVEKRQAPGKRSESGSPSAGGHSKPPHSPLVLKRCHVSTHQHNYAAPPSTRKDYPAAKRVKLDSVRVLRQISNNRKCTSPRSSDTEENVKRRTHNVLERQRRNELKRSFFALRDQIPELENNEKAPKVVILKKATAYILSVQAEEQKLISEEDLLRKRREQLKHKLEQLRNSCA
UniProt P31749: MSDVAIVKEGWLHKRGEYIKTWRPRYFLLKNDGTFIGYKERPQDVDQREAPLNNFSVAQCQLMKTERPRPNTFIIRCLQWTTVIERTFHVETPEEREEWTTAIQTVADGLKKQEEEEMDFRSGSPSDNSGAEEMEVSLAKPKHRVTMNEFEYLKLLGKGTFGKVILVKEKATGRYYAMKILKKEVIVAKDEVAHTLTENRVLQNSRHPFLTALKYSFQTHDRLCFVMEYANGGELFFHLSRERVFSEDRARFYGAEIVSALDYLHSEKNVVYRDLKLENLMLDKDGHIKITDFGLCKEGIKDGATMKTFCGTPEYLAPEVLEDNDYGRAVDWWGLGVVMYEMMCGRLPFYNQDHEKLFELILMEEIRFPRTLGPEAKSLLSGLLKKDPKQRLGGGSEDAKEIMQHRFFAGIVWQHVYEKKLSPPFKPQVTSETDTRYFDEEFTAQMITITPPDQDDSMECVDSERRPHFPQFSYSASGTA
UniProt Q9BZ95, residues 1-347: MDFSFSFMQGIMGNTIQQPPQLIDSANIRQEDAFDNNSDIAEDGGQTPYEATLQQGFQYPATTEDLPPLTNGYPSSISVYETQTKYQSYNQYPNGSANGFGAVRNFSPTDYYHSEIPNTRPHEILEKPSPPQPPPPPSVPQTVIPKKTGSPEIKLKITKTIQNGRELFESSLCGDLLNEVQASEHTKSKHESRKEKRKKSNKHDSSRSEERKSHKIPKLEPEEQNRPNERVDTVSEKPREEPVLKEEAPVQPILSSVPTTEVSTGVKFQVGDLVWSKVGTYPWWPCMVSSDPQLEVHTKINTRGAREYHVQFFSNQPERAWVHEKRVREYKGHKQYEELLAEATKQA
UniProt P16234, residues 24-1089: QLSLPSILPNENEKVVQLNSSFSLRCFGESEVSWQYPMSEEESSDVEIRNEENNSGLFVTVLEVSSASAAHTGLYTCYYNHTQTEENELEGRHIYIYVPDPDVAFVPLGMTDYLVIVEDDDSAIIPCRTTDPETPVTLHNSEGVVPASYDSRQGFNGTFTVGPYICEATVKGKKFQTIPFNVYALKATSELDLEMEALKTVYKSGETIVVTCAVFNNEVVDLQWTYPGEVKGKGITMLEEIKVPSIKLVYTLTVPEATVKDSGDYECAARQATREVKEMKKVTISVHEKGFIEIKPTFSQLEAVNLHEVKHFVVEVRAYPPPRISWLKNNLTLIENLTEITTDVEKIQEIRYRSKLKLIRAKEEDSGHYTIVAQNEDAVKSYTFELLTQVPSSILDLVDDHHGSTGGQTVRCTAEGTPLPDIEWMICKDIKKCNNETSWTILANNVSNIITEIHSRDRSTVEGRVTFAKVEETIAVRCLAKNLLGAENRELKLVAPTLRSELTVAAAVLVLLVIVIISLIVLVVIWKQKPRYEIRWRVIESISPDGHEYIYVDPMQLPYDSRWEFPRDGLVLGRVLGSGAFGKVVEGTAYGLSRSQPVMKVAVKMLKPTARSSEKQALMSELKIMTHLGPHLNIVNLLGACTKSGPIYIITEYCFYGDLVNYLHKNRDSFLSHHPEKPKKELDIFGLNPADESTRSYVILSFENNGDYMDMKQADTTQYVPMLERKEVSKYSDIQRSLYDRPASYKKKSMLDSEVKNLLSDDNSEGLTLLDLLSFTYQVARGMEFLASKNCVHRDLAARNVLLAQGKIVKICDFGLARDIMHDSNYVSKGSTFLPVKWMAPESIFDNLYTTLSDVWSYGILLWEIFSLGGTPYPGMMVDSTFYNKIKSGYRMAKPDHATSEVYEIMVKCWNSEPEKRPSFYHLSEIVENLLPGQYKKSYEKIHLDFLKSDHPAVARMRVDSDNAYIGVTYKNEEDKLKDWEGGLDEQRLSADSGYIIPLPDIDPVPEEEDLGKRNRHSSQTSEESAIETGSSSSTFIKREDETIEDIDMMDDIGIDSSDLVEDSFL
UniProt P51532: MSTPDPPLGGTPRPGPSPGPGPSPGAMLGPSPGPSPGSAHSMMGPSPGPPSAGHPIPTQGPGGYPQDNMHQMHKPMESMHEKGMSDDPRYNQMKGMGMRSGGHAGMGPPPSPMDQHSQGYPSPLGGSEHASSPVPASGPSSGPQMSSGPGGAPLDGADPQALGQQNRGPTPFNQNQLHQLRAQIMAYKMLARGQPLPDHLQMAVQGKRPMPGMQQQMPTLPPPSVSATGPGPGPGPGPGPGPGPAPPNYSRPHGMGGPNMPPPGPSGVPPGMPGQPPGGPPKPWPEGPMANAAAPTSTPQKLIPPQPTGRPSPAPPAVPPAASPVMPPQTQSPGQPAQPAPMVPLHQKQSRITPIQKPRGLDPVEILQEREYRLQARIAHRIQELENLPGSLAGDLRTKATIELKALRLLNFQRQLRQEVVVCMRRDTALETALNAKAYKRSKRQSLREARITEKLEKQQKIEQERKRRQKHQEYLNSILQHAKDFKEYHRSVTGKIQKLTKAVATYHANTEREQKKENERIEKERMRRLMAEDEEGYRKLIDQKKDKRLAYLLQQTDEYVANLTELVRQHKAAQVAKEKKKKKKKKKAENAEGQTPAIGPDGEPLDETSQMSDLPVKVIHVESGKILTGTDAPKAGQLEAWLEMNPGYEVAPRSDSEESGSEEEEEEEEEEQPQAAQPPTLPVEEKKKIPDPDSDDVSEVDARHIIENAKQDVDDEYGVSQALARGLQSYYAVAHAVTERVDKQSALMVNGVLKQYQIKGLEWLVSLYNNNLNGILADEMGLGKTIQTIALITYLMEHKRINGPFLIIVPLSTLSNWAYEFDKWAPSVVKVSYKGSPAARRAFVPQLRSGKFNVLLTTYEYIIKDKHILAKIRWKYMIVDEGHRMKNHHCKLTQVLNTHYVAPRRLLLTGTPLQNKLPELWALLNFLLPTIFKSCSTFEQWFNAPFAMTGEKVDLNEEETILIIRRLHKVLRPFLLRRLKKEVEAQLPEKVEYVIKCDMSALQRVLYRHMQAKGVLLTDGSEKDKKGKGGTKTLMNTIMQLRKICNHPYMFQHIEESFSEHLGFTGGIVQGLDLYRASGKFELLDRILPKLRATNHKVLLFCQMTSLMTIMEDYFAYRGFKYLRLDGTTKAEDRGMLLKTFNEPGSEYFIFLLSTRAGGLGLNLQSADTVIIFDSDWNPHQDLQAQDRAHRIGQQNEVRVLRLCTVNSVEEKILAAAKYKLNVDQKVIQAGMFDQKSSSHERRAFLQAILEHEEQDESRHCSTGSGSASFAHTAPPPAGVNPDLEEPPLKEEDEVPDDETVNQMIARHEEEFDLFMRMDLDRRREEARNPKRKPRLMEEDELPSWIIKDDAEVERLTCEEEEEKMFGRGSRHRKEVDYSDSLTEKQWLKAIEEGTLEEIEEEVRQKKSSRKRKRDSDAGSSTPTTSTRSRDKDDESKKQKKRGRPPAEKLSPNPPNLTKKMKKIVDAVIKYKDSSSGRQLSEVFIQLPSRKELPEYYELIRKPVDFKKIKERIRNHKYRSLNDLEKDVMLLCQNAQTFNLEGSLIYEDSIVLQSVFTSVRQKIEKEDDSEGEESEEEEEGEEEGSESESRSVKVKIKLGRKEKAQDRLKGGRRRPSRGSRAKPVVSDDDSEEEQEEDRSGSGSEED
UniProt P35240: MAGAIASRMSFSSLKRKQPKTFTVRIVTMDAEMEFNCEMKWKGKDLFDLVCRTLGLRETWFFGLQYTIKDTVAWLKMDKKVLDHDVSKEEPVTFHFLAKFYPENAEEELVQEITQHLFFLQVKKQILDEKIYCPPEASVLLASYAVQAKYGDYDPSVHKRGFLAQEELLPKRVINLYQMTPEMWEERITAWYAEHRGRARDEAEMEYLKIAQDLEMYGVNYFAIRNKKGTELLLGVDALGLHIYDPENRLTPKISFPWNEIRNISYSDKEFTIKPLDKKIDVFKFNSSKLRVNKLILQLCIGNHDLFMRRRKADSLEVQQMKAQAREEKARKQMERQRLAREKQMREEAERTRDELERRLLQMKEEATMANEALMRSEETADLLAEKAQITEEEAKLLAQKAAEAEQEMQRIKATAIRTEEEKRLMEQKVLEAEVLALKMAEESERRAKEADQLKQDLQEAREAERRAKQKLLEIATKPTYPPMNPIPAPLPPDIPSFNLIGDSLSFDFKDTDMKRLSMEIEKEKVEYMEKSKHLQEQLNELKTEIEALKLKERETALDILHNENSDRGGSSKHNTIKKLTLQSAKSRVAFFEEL
UniProt Q15796: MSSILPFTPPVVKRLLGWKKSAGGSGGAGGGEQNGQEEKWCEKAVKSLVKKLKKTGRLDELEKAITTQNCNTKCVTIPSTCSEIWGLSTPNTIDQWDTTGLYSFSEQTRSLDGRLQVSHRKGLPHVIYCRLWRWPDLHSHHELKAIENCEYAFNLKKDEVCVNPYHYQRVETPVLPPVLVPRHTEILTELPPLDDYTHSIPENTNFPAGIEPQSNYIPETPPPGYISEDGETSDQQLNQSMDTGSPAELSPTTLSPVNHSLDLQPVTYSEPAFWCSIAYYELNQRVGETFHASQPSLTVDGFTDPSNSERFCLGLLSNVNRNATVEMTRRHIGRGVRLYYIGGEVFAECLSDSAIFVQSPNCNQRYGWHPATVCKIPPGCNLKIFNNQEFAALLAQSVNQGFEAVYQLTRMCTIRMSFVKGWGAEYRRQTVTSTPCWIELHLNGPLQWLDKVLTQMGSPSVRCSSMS
UniProt P63104: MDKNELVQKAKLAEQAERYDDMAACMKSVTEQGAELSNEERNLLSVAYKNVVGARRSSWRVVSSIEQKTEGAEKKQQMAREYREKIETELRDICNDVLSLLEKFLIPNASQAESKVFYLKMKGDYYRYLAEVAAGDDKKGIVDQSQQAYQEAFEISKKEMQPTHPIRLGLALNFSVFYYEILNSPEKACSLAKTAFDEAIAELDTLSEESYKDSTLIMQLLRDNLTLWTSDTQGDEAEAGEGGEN

Tests used:
GST-CDK4 (human) = GST-CDK4 (human) (UniProt P11802); experiment: pull-down; GST-affinity pull-down from lysates of transfected HEK293T cells; 1% NP-40 buffer, glutathione-conjugated beads 2 h at 4 °C, three washes, western blot; in Figure 5i the cells were treated with palbociclib
TSC1 (human) = molecular target: T1, TSC1 (human) (UniProt Q92574); experiment: FRET or BRET; TR-FRET high-throughput screen, 384-well; GST- and Venus-Flag-fusions co-transfected in H1299 cells, whole cell lysate, anti-GST-terbium antibody, 4 °C; both fusion orientations, triplicates, three rounds; positives by FOC, P and q values against GST-only and Venus-only controls
T1 sequence: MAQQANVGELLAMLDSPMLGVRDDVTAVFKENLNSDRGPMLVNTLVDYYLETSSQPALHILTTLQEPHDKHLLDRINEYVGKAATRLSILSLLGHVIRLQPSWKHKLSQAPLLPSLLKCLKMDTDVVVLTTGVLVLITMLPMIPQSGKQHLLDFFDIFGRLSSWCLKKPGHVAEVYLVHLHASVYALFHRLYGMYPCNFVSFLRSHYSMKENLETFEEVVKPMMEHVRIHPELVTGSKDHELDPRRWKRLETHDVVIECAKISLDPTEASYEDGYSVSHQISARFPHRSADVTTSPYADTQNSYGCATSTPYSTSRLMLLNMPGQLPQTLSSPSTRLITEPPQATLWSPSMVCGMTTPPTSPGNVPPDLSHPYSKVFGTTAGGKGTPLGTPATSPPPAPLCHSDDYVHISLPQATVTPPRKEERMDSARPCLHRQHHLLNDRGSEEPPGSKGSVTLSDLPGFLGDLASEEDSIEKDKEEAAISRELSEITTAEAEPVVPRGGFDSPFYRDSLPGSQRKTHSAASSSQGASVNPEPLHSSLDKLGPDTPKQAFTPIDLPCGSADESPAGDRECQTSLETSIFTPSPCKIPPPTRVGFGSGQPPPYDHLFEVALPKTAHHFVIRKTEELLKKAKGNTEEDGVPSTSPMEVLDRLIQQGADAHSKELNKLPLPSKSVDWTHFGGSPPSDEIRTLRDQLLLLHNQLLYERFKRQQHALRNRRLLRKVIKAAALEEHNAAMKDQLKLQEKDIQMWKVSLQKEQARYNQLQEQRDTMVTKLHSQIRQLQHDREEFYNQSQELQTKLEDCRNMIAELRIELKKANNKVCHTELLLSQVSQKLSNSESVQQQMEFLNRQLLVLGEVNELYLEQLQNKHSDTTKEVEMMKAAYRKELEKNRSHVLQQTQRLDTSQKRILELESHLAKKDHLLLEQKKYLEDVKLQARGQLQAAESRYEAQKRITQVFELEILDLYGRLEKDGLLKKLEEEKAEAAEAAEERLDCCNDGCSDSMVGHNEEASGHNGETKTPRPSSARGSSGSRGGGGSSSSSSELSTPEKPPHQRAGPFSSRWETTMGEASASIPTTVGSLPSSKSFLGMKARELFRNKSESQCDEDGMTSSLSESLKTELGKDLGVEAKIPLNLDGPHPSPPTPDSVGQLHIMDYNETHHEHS

CDK4 (human) = CDK4 (human) (UniProt P11802); experiment: as above
STK11 (human) = molecular target: T2, STK11 (human) (UniProt Q15831); experiment: as above
T2 sequence: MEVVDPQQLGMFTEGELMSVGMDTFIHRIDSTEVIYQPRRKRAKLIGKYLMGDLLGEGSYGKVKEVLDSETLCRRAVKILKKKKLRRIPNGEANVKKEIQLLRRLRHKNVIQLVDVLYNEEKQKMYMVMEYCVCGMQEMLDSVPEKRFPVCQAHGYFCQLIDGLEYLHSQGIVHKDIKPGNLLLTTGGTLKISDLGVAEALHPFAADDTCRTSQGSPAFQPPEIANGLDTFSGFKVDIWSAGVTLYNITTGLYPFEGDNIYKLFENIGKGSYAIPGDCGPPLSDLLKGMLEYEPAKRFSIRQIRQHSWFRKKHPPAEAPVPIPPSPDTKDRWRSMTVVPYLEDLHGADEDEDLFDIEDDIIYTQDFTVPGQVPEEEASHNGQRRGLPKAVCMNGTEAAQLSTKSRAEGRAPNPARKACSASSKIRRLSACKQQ

EPHA2 (human) = EPHA2 (human) (UniProt P29317); experiment: as above
MYC (human) [1] = molecular target: MYC (human) (UniProt P01106); experiment: as above
HRAS (human) = HRAS (human) (UniProt P01112); experiment: as above
RASSF1 (human) = molecular target: T3, RASSF1 (human) (UniProt Q9NS23); experiment: as above
T3 sequence: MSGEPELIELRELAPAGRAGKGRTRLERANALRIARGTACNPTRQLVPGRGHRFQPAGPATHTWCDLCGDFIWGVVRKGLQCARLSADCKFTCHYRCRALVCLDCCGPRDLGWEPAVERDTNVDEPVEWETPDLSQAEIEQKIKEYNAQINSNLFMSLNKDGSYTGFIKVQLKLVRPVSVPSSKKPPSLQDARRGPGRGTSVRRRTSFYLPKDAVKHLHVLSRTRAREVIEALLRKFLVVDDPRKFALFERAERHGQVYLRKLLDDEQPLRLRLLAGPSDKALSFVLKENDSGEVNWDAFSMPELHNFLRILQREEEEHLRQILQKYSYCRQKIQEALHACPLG

MYC (human) [2] = molecular target: MYC (human) (UniProt P01106); experiment: pull-down; GST-affinity pull-down from lysates of transfected HEK293T cells; 1% NP-40 buffer, glutathione-conjugated beads 2 h at 4 °C, three washes, western blot; in Figure 5i the cells were treated with palbociclib
RB1 (human) = molecular target: T4, RB1 (human) (UniProt P06400); experiment: FRET or BRET; TR-FRET high-throughput screen, 384-well; GST- and Venus-Flag-fusions co-transfected in H1299 cells, whole cell lysate, anti-GST-terbium antibody, 4 °C; both fusion orientations, triplicates, three rounds; positives by FOC, P and q values against GST-only and Venus-only controls
T4 sequence: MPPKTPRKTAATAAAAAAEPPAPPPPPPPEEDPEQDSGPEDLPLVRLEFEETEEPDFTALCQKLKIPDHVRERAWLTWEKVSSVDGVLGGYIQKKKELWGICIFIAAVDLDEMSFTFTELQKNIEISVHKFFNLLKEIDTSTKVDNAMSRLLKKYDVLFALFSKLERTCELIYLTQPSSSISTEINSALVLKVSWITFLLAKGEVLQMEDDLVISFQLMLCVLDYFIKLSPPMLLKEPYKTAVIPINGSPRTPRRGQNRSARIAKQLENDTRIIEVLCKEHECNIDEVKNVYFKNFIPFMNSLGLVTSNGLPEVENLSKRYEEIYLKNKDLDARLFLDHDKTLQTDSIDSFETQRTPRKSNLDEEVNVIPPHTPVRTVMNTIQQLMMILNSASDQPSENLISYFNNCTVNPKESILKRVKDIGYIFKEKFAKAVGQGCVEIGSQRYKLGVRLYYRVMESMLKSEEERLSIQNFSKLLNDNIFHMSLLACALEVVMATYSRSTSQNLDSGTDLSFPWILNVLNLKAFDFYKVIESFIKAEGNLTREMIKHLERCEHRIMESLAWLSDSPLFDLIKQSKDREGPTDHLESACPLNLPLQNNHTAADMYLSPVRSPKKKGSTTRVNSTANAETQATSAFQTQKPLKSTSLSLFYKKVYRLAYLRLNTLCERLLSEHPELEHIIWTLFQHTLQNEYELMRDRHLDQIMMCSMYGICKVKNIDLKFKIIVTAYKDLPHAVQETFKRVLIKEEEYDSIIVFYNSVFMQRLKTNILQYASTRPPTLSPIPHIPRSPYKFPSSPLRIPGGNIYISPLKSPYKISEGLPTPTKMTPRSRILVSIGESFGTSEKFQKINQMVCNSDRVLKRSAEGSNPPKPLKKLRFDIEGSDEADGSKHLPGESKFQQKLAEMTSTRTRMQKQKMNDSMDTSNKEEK

binding (GST-CDK4 (human)): binds
binding (TSC1 (human)): binds
binding (CDK4 (human)): binds
Substance: AKT1 (from UniProt P31749 1-480)

binding (STK11 (human)): binds
Substance: CDK6 (from UniProt Q00534 1-326)

binding (TSC1 (human)): no binding
Substance: FOXO1 (from UniProt Q12778 1-655)

binding (MYC (human) [2]): no binding
Substance: NSD3-s (1–347) (from UniProt Q9BZ95 1-347) (domain or fragment)

binding (GST-CDK4 (human)): binds
binding (CDK4 (human)): binds
Substance: PDGFRA (from UniProt P16234 24-1089)

binding (RASSF1 (human)): binds
Substance: SMARCA4 (from UniProt P51532 1-1647)

The remaining lines, values behind:

Substance: CDKN2B (from UniProt P42772 1-138)
binding (EPHA2 (human)): binds

Substance: GCN5 (from UniProt Q92830 1-837)
binding (MYC (human) [1]): binds

Substance: MAPK14 (from UniProt Q16539 1-360)
binding (HRAS (human)): no binding

Substance: NF2 (from UniProt P35240 1-595)
binding (GST-CDK4 (human)): binds
binding (CDK4 (human)): binds
binding (RASSF1 (human)): binds

Substance: SMAD2 (from UniProt Q15796 1-467)
binding (RB1 (human)): no binding
binding (MYC (human) [1]): binds

Substance: YWHAZ (from UniProt P63104 1-245)
binding (TSC1 (human)): no binding
